Source: patent EP0454367B1, “Growth hormone releasing factor analogs” (ELI LILLY AND COMPANY, priority 1990, dated 1991)
Part of at least one peptide drawing is inferred or uncertain, most often the ends. Residues, ends and D or L forms follow the SMILES beside them.

Target: T1, Rat Pituitary Cells (Rattus norvegicus, UniProt Q02644)
T1 sequence (Q02644 23-464): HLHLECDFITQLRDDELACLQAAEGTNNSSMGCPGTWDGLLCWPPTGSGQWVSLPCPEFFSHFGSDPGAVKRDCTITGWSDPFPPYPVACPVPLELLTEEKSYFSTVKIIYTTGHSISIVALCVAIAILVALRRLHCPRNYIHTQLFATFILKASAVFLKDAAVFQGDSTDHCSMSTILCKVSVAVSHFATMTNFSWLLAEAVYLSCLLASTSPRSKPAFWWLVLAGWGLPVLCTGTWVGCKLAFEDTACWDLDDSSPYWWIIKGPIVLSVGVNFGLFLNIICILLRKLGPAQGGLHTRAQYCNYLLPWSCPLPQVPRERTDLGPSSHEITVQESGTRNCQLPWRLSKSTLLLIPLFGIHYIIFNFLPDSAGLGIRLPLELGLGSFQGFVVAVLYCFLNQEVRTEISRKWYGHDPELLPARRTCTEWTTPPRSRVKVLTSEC
Test: GRF-analog mediated GH secretion from rat pituitary cells (method of Heiman et al.)
Assay type: cell-based
Settings: EC50 [R^12,T^15,R^21,L^27]hGRF(1-29)NH2 / EC50 analog
Experimental: The polypeptide compounds of the invention may be assayed in numerous systems. One in vivo assay is carried out in sodium pentobarbital-anesthetized rats. Wehrenberg et al., Biochem. Biophys. Res. Commun. 109:382 (1982). Growth hormone release is measured in vitro with rat anterior pituitary cells. Heiman et al., Endocrinol. 116:410 (1985). Assays are also performed in wether lambs as described in the Examples provided hereinafter.
Various bGRF peptide analogs were synthesized by the solid phase synthesis method as described in U.S. Patent 4,617,149. The compounds were assayed in rat pituitary cells by the method of Heiman et al., Endocrinol. 116:410 (1985). The analogs are based on the sequence of the first 29 amino acids of human growth hormone releasing factor with the substitutions listed.

| Relative Potency (% of std) | SMILES |
| --- | --- |
| .09 % of std | CC[C@H](C)[C@H](NC(=O)[C@H](C)NC(=O)[C@H](CC(=O)O)NC(=O)[C@H](C)NC(=O)[C@H](Cc1ccc(O)cc1)NC(=O)[C@@H]1CCCN1C(=O)[C@@H]1CCCN1)C(=O)N[C@@H](Cc1ccccc1)C(=O)N[C@H](C(=O)N[C@@H](CC(N)=O)C(=O)N[C@@H](CO)C(=O)N[C@@H](Cc1ccc(O)cc1)C(=O)N[C@@H](CCCNC(=N)N)C(=O)N[C@@H](CCCNC(=N)N)C(=O)N[C@H](C(=O)N[C@@H](CC(C)C)C(=O)N[C@H](C(=O)N[C@@H](CCC(N)=O)C(=O)N[C@@H](CC(C)C)C(=O)N[C@@H](CO)C(=O)N[C@@H](C)C(=O)N[C@@H](CCCNC(=N)N)C(=O)N[C@@H](CCCNC(=N)N)C(=O)N[C@@H](CC(C)C)C(=O)N[C@@H](CC(C)C)C(=O)N[C@@H](CCC(N)=O)C(=O)N[C@@H](CC(=O)O)C(=O)N[C@H](C(=O)N[C@@H](CC(C)C)C(=O)N[C@@H](CO)C(=O)N[C@@H](CCCNC(=N)N)C(N)=O)[C@@H](C)CC)[C@@H](C)O)C(C)C)[C@@H](C)O [[P^-1,P^0,R^12,T^15,R^21,L^27]hGRF(1-29)NH2] (H-PPYADAIFTNSYRRVLTQLSARRLLQDILSR-NH2) |
| .21 % of std | CC[C@H](C)[C@H](NC(=O)[C@H](C)NC(=O)[C@H](CC(=O)O)NC(=O)[C@H](C)NC(=O)[C@H](Cc1ccc(O)cc1)NC(=O)[C@H](C)NC(=O)[C@@H](N)Cc1ccccc1)C(=O)N[C@@H](Cc1ccccc1)C(=O)N[C@H](C(=O)N[C@@H](CC(N)=O)C(=O)N[C@@H](CO)C(=O)N[C@@H](Cc1ccc(O)cc1)C(=O)N[C@@H](CCCNC(=N)N)C(=O)N[C@@H](CCCNC(=N)N)C(=O)N[C@H](C(=O)N[C@@H](CC(C)C)C(=O)N[C@H](C(=O)N[C@@H](CCC(N)=O)C(=O)N[C@@H](CC(C)C)C(=O)N[C@@H](CO)C(=O)N[C@@H](C)C(=O)N[C@@H](CCCNC(=N)N)C(=O)N[C@@H](CCCNC(=N)N)C(=O)N[C@@H](CC(C)C)C(=O)N[C@@H](CC(C)C)C(=O)N[C@@H](CCC(N)=O)C(=O)N[C@@H](CC(=O)O)C(=O)N[C@H](C(=O)N[C@@H](CC(C)C)C(=O)N[C@@H](CO)C(=O)N[C@@H](CCCNC(=N)N)C(N)=O)[C@@H](C)CC)[C@@H](C)O)C(C)C)[C@@H](C)O [[F^-1,A^0,R^12,T^15,R^21,L^27]hGRF(1-29)NH2] (H-FAYADAIFTNSYRRVLTQLSARRLLQDILSR-NH2) |
